# From PubChem BioAssay AID651820 (National Center for Advancing Translational Sciences (NCATS), 2012)
# Several values for one entry are separate records, joined by “and”; a condition that tells them apart may be missing. Equal values may be shown once. Out of some 340,000 compounds screened, about 12,000 (3.5%) were called active. The inconclusive results got no clear call from the source; some entries with a clear call stand among them for comparison. Calls come from the whole dose curve; as a rule, active = well fitted inhibition curve with a large enough effect; inconclusive = small, poorly fitted or top-dose-only effect, or another doubt; inactive = no such curve, though single readings can be large or run the other way. No potency is given beside an inconclusive call; the fits are too rough.
# Assay: qHTS Assay for Inhibitors of Hepatitis C Virus (HCV)
# Conditions: Huh7.5.1 HCVcc-Cre (HCVcc is cell-culture hepatitis C virus) infection, luciferase reporter, 44 h; series mostly up to 41.8 µM
# Method in brief: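 Infectious HCV cell culture screen: compound-treated cells (1,000/well, pre-plated 4 h) are infected with HCVcc-Cre at roughly 0.5 moi and grown 44 h. Infection is quantified by luciferase signal after 15 min substrate incubation at room temperature.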
# Potency is the fitted concentration of half-maximal effect; tags give direction and shape of the fitted curve.
row,Compound,Potency
1,CC1CCCN(CC(O)COC(c2ccccc2)c2ccccc2)C1 (stereo unspecified),"inconclusive [inhibitor, partial curve]"
2,COc1cc(CNCc2ccccn2)ccc1OCc1ccccc1Cl,"inconclusive [inhibitor, single point]"
3,CN(C)/N=C/c1ccc(/C=N/NC(N)=S)o1,inactive
4,COc1ccc(C(=O)N/N=c2\oc3ccccc3cc2C(=O)NCc2ccccc2)cc1,"inconclusive [inhibitor, full curve, poor fit]"
5,Cc1nn(C)c(C)c1Nc1ccc(N2C(=O)C3CC=CCC3C2=O)cc1[N+](=O)[O-] (stereo unspecified),"inconclusive [inhibitor, single point]"
6,O=C(Nc1cccc(NC(=O)c2ccco2)c1)c1ccc2c(c1)OCO2,"inconclusive [inhibitor, full curve, poor fit]"
7,CCCCNCC1C(Oc2ccc(Cl)cc2)C(=O)N1c1ccccc1C (stereo unspecified),"inconclusive [inhibitor, single point]"
8,O=C(NCCc1nc2ccccc2[nH]1)c1cccc(Br)c1,"inconclusive [inhibitor, single point]"
9,O=C1CN(C(=O)OCc2ccccc2)c2ccccc2N1,inactive
10,CCN(CC(=O)Nc1ccccc1C(F)(F)F)C(=O)COc1cccc2c1OC(C)(C)C2,"inconclusive [inhibitor, partial curve]"
11,C(=N/n1c2ccccc2c2ccccc21)/c1ccco1,active: 8.91 µM
12,CCN(CC)CCOC(c1ccccc1)c1ccc(C)cc1 (stereo unspecified),"inconclusive [inhibitor, full curve]"
13,CC(C)c1ccc(NC(=O)CSc2nc3ncccc3[nH]2)cc1,"inconclusive [inhibitor, single point]"
14,CC[N+](C)(CC)CCC[n+]1c(-c2ccccc2)c2cc(N)ccc2c2ccc(N)cc21,"inconclusive [inhibitor, partial curve]"
15,Cn1ncc2c(Nc3ccc(Br)cc3)nc(Nc3ccc(Br)cc3)nc21,"inconclusive [inhibitor, single point]"
16,CN1CCN(CCC(=O)Nc2ccc(F)c(F)c2)CC1,inactive
17,CC1CC(C)CN(C(=O)C2CCN(S(=O)(=O)c3cccs3)CC2)C1 (stereo unspecified),"inconclusive [inhibitor, single point]"
18,Cc1ccccc1CCNC(=O)Cn1nc(C)c2c(C)n(-c3ccccc3)nc2c1=O,"inconclusive [inhibitor, partial curve]"
19,Cc1onc(-c2ccc(Cl)cc2)c1-c1ccnc(SCC(=O)Nc2ccc(C(C)C)cc2)n1,inactive
20,O=C(O)c1cnn(-c2nc(-c3cccc(F)c3)cs2)c1C(F)(F)F,inactive
21,Cc1cc(C)c(NC(=O)COc2ccccc2C(=O)Nc2ccc3c(c2)oc2ccccc23)c(C)c1,"inconclusive [inhibitor, partial curve]"
22,Cc1ccc(-c2csc3ncnc(N4CCN(S(=O)(=O)c5cccs5)CC4)c23)cc1,"inconclusive [inhibitor, partial curve]"
23,CCOc1cc2c(cc1OC)C(c1cccc([N+](=O)[O-])c1)NCC2 (stereo unspecified),inactive
24,Brc1cccc(OCCCCn2cncn2)c1,inactive

row,Compound,Potency
1,CC(=O)c1ccc(NC(=S)N2CCCC2)cc1,inactive
2,O=C(N/N=C/c1cc([N+](=O)[O-])ccc1O)c1cccc2cc[nH]c12,"inconclusive [inhibitor, single point]"
3,O=C(Nc1cccnc1)c1cc2nc(C3CC3)cc(C(F)(F)F)n2n1,"inconclusive [inhibitor, single point]"
4,COc1ccc(CC(=O)Nc2ccc(-c3cn4ccccc4n3)cc2)cc1,"inconclusive [inhibitor, partial curve]"
5,O=C(c1ccccc1)c1ccc(Sc2ccc([N+](=O)[O-])cc2)cc1,"inconclusive [inhibitor, single point]"
6,NCCCC[C@H]1CNC(=S)N1CCCCC1CCCCC1,"inconclusive [inhibitor, single point]"
7,COc1ccc(N2CCN(C(=O)CCS(=O)(=O)c3ccc(C)cc3)CC2)cc1,inactive
8,COc1ccc(F)c(CN2CCCC(CNS(=O)(=O)c3cccc4cccnc34)C2)c1 (stereo unspecified),"inconclusive [inhibitor, partial curve]"
9,O=[N+]([O-])c1ccc(Cl)c(/C=N/N2CCN(Cc3ccccc3)CC2)c1,inactive
10,CCC(=O)NC(=S)Nc1ccc(NC(=O)c2ccc(Br)o2)cc1,"inconclusive [inhibitor, partial curve]"
11,CCOP(=O)(OCC)C(Nc1cccc([N+](=O)[O-])c1)c1ccc(OC)cc1 (stereo unspecified),inactive
12,CC(OC(=O)c1ccc(Cl)cc1O)C(=O)NCCC1=CCCCC1 (stereo unspecified),"inconclusive [inhibitor, single point]"
13,COc1ccc([N+](=O)[O-])cc1NC(=O)C(C)Sc1nc(C)c(C)c(C)n1 (stereo unspecified),active: 5.62 µM
14,O=Cc1cn[nH]c1-c1ccccc1,inactive
15,CCOC(=O)C1CCN(C(=O)COc2ccc(Cl)cc2)CC1,inactive
16,N#Cc1ccc(NC(=O)CN2C(=O)NC3(CCCC3)C2=O)cc1,"inconclusive [inhibitor, partial curve]"
17,Cc1ccc(C(=O)c2coc3c2C(=O)C(=O)c2ccccc2-3)cc1,"inconclusive [inhibitor, single point]"
18,O=C(Nc1ccc(-c2nc3cccnc3s2)cc1)c1ccc(Br)o1,active: 11.2 µM
19,COc1cc(/C=C/c2ccc3cccc(O)c3n2)ccc1O,active: 11.2 µM
20,Clc1ccc(C(c2ccccc2Cl)C(Cl)Cl)cc1 (stereo unspecified),"inconclusive [inhibitor, single point]"
21,O=C(Cc1ccc(Cl)cc1Cl)Nc1ccc(OC(F)F)c(Cl)c1,"inconclusive [inhibitor, partial curve]"
22,O=C(Nc1ccc(F)c(Cl)c1)C1CCN(c2ncnc3c2nc2n3CCCCC2)CC1,"inconclusive [inhibitor, partial curve]"
23,O=c1cc(-c2ccc([N+](=O)[O-])cc2)c2cc3c(cc2[nH]1)OCCO3,"inconclusive [inhibitor, single point]"
24,CCN1C(=O)c2cccc3c(S(=O)(=O)N(C(=O)c4cccnc4)c4ccc(OC)cc4)ccc1c23,"inconclusive [inhibitor, single point]"

row,Compound,Potency
1,CC(C)(C)C(=O)Nc1nc2c(s1)COc1ccccc1-2,"inconclusive [inhibitor, single point]"
2,COc1ccc(C(NC(C)=O)c2nccc3cc(OC)c(OC)cc23)cc1OC (stereo unspecified),inactive
3,CC1CN(C(=O)Nc2ccc3c(c2)OCO3)CC(C)O1 (stereo unspecified),inactive
4,Cc1cc(=O)oc2c(C)c(OCC(=O)N(C)C)ccc12,inactive
5,CCOCCCn1c(SC(C)C(=O)NCC2CCCO2)nc2sc(C)c(C)c2c1=O (stereo unspecified),inactive
6,Cn1nnnc1SCC(=O)NNC(=O)c1ccc(F)cc1,"inconclusive [inhibitor, partial curve]"
7,COc1ccc(OC)c(CCNC(=O)c2cccc(NC(=O)C3=C(C)OCCS3)c2)c1,active: 11.2 µM
8,CCN(CC)S(=O)(=O)c1cccc(NC(=O)CCSc2ccc(Cl)cc2)c1,"inconclusive [inhibitor, partial curve, poor fit]"
9,O=S(=O)(c1ccc2ccccc2c1)N1CCN(C(=S)Nc2ccc(F)c(Cl)c2)CC1,"inconclusive [inhibitor, single point]"
10,CCC(=O)Nc1cc2c3c(c1)CCC(=O)N3CCC2,inactive
11,O=C(N/N=C/c1ccccc1[N+](=O)[O-])c1ccc(COc2ccccc2-c2ccccc2)cc1,"inconclusive [inhibitor, partial curve, poor fit]"
12,CCN(CC)S(=O)(=O)c1ccc(N2CCOCC2)c(NC(=O)c2ccccc2F)c1,inactive
13,COc1cc(C(=O)OCC(=O)c2cc(C)n(CC3CCCO3)c2C)cc(OC)c1C (stereo unspecified),"inconclusive [inhibitor, partial curve]"
14,O=S(=O)(NC1c2cccc3cccc(c23)C1Sc1ncccn1)c1ccccc1 (stereo unspecified),"inconclusive [inhibitor, single point]"
15,COc1ccc(CC(=O)Nc2sc(Cc3ccccc3)c(C)c2C(N)=O)cc1,"inconclusive [inhibitor, partial curve, poor fit]"
16,COCCNc1ncnc2c1cnn2Cc1ccccc1Cl,"inconclusive [inhibitor, partial curve]"
17,O=C(COC(=O)c1c2c(nc3ccccc13)/C(=C\c1cccs1)CCC2)Nc1ccccc1Cl,active: 4.47 µM and active: 2.51 µM
18,CCN(CC)S(=O)(=O)c1ccc(N2CCOCC2)c(NC(=O)C23CC4CC(CC(Cl)(C4)C2)C3)c1,"inconclusive [inhibitor, partial curve]"
19,Cc1cccnc1NC(=O)c1cc2ccccc2oc1=O,"inconclusive [inhibitor, single point]"
20,Cc1[nH]c2ccccc2c1CCNC(=O)c1ccc2c(c1[N+](=O)[O-])C(=O)c1ccccc1C2=O,"inconclusive [inhibitor, single point]"
21,COc1ccc(-c2nc3cnccn3c2Nc2ccc3c(c2)OCO3)cc1,inactive
22,CC(=O)Nc1ccc(N(C(=O)c2ccco2)C(C(=O)NC2CCCC2)c2ccc(N(C)C)cc2)cc1 (stereo unspecified),inactive
23,COc1ccc(C2=NOC(Cn3nc(C(=O)NCc4ccccc4OC)cc3-c3ccccc3)C2)cc1 (stereo unspecified),"inconclusive [inhibitor, partial curve, poor fit]"
